Test results: the supplement of paper PMC7826260
Some of the results follow. Cleavage of a single-stranded DNA pool by Rep nickase domains was read by sequencing at 3 µM enzyme and 37 °C for 1 h; the strands have 90 letters, of which the middle is given. The score is log2 (uncut reads / reads without enzyme); the lower, the more was cut; hits are not called. Shares of all reads are compared; where an enzyme cuts many sequences, the uncut ones exceed 0.

Experiments:
Experiment in all cases: uncleaved DNA left, log2 of reads against the no-enzyme library (log2 ratio); higher = less cleavage (more negative = more Rep cleavage of the k-mer); sequences stand for … in CTCGTCCG…ACCGGAGA
[1] = system: T1, Rep nickase domain of Muscovy duck circovirus
T1 sequence (residues 1-111 of Rep, tag left off): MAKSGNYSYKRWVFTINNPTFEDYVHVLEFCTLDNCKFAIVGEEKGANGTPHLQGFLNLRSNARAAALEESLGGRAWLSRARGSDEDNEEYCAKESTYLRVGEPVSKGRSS
Protocol: (§1)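 A pool of 90-nt single-stranded DNAs with seven random bases just before the constant AC of the nick site (name = the seven bases) was cut by 3 µM recombinant His6-SUMO-tagged Rep nickase domain (300 nM DNA, 50 mM HEPES pH 8.0, 50 mM NaCl, 1 mM MnCl2, 1 h, 37 °C, three replicates). Uncut DNA was amplified and sequenced.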

[2] = system: T2, Rep nickase domain of banana bunchy top virus
T2 sequence (residues 1-94 of Rep, tag left off): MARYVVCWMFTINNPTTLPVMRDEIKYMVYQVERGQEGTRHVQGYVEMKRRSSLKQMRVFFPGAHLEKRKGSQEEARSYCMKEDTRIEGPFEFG
Protocol: as §1

[3] = system: T3, Rep nickase domain of cabbage leaf curl virus
T3 sequence (residues 1-116 of Rep, tag left off): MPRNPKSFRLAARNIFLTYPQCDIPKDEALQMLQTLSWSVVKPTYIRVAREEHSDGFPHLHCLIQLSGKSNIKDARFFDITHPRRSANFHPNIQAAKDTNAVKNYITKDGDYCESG
Protocol: as §1

[4] = system: T4, Rep nickase domain of chickpea chlorotic dwarf virus
T4 sequence (residues 1-124 of Rep, tag left off): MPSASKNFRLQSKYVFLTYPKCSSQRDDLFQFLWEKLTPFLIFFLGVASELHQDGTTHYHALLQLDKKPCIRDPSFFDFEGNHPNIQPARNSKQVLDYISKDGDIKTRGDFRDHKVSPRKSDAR
Protocol: as §1

[5] = system: T5, Rep nickase domain of faba bean necrotic yellows virus
T5 sequence (residues 1-98 of Rep, tag left off): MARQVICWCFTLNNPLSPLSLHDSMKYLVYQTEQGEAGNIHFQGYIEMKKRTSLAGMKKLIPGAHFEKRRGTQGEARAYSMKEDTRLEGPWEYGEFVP
Protocol: as §1

[6] = system: T6, Rep nickase domain of maize striate mosaic virus
T6 sequence (residues 1-117 of Rep, tag left off): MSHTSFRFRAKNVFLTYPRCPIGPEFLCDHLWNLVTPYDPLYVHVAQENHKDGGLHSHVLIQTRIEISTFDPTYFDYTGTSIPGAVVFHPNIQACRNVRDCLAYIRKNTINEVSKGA
Protocol: as §1

[7] = system: T7, Rep nickase domain of porcine circovirus 2
T7 sequence (residues 2-116 of Rep, tag left off): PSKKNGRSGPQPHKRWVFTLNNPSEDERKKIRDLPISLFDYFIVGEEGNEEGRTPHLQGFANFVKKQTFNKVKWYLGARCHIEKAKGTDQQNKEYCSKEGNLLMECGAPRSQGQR
Protocol: as §1

[8] = system: T8, Rep nickase domain of tomato yellow leaf curl virus
T8 sequence (residues 1-136 of Rep, tag left off): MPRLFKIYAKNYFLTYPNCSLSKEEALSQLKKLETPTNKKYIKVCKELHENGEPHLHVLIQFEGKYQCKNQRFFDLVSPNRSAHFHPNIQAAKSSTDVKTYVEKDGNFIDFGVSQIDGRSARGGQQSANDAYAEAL
Protocol: as §1

[9] = system: T9, Rep nickase domain of wheat dwarf virus
T9 sequence (residues 1-137 of Rep, tag left off): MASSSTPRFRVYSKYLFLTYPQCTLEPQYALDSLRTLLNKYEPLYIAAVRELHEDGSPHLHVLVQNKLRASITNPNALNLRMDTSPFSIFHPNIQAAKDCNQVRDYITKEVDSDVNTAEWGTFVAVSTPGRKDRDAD
Protocol: as §1

Sequence	uncleaved DNA left (log2) [1]	uncleaved DNA left (log2) [2]	uncleaved DNA left (log2) [3]	uncleaved DNA left (log2) [4]	uncleaved DNA left (log2) [5]	uncleaved DNA left (log2) [6]	uncleaved DNA left (log2) [7]	uncleaved DNA left (log2) [8]	uncleaved DNA left (log2) [9]
CTCTACA	-0.141	0.0557	-0.357	-2.62	0.0441	-0.771	-0.00884	0.0815	0.0406
CCCTCAG	-0.17	-0.191	-0.691	-0.565	-0.0808	-1.08	0.0564	-0.111	-0.161
TAGTTCT	-3.51	-3.46	-2.93	-2.98	-3.14	-0.337	-4.39	0.118	-0.484
TGGCGGC	0.0583	-0.0232	0.00779	0.114	0.00825	-0.0988	0.0634	0.0676	-0.116
CCGCGAC	0.105	-0.108	-0.0814	0.00294	0.0248	-0.213	-0.083	-0.12	-0.0838
ATCCCTC	-0.0928	-0.0541	-0.000655	-0.117	-0.0862	-0.327	-0.129	-0.0812	-0.154
CCAGGGA	-0.0654	-0.087	0.17	0.562	-0.159	0.406	-0.000512	-0.128	-0.185
AGCGCGG	0.0237	0.13	-0.00535	0.593	-0.0286	1.64	0.0881	0.0262	0.0497
TCCGGCG	0.0933	0.0978	-0.529	0.744	0.123	-0.168	0.0883	0.0726	0.0319
CACTTCA	-0.118	-0.319	-0.204	-2.44	-0.0502	-0.734	-2.76	-0.01	0.0782
CCAATAA	-0.13	-0.171	-0.343	-0.453	-0.081	-0.949	-0.0868	-0.261	-0.158
AGCCGCA	-0.125	0.0417	0.00147	0.387	-0.0141	0.829	-0.00228	-0.0893	0.0741
TGCACGG	0.027	0.141	0.49	1.47	-0.00567	2.01	0.0612	-0.0567	0.173
GAGCTGC	0.0499	-0.00916	0.235	1.16	0.0235	1.1	0.137	-0.00641	0.05
GATACAG	-0.00322	0.0119	-0.158	-0.038	0.0548	-0.413	0.209	0.0772	0.0176
CTATCCG	-0.00655	-0.0807	-0.944	0.0387	-0.0187	-1.03	0.0484	-0.0751	-0.159
CTAGGTT	0.0398	0.157	0.226	0.63	-0.11	1.63	0.0231	-0.0969	0.138
GCTCAGG	0.0994	-0.0474	0.285	1.02	-0.0227	0.786	0.0602	-0.149	-0.0429
TACATAT	0.0365	-0.0867	-0.733	-2.47	-0.0303	-0.721	-1.32	-0.0928	-0.0449
CCCGTTA	-0.219	0.0168	0.0725	-0.912	-0.0757	-0.362	0.00803	-0.165	-0.129
GGCTGTT	-1.03	0.117	0.163	0.54	0.0924	1.68	-2.59	0.137	-0.0767
AGCCAAT	0.04	0.0746	0.143	0.298	0.035	0.303	-0.087	0.171	0.141
TCTTATG	-0.0195	-0.166	-0.369	-0.559	-0.0514	-1.06	-0.163	0.0812	-0.217
GCCCCGC	-0.0437	-0.0266	-0.127	0.0185	0.0238	-0.422	-0.00529	0.0295	-0.0189
TAGTATC	0.0565	-0.242	-0.612	-1.15	-2.78	-0.168	-3.9	0.0496	-0.0308
CTGCAGT	0.176	0.0625	-0.514	-0.568	0.259	-0.949	0.168	0.0539	-0.0379
TGGTTTT	-2.25	-0.184	0.229	-0.862	-0.304	0.914	-3.06	0.0879	-0.0497
GTCATAA	0.125	0.102	0.334	0.918	0.00259	1.77	0.179	0.198	0.0204
GACTTGT	-0.0922	-0.052	0.194	0.616	-0.0264	0.921	-2.9	0.0869	0.128
CCGCTGG	0.00454	-0.114	-0.124	0.133	0.0896	-0.173	0.0722	-0.0715	-0.0252
